# Source: the supplement of paper PMC8728848
# The list shows a part of the results.
# B1: ASAL (Allium sativum), P83886 (protein)
# chain: MGRTTSSPKAMMRIATVAAILTILASTCMARNVLTNGEGLYAGQSLDVEQYKFIMQDDCNLVLYEYSTPIWASNTGVTGKNGCRAVMQRDGNFVVYDVNGRPVWASNSVRGNGNYILVLQKDRNVVIYGSDIWSTGTYRRSVGGAVVMAMNGTVDGGSVIGPVVVNQNVTAAIRKVGTGAA
# Key:
# Assay in all cases: glycan array binding signal (z-score within array); higher = stronger binding
# Settings in all cases: glycan notation: IUPAC condensed, linker removed
# [1] = target: Gal(b1-4)GlcNAc(b1-6)[Gal(b1-3)]GalNAc
# Procedure, shortened: (§1)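 Glycan array data were curated from 3228 arrays in the Consortium for Functional Glycomics database and kept only where the protein sequence was available. Glycan names were converted to IUPAC-condensed notation, and columns mapping to the same glycan were averaged. The binding signal is a within-array Z-score, averaged across arrays of the same protein sequence at different concentrations or buffers and across linkers. Negative Z-scores can be read as non-binding.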
# Gal(b1-6)Gal = target: Gal(b1-6)Gal
# Procedure, shortened: as §1
# Gal3S(b1-3)GalNAc = target: Gal3S(b1-3)GalNAc
# Procedure, shortened: as §1
# Gal3S(b1-3)GlcNAc = target: Gal3S(b1-3)GlcNAc
# Procedure, shortened: as §1
# [2] = target: Gal3S(b1-3)[Fuc(a1-4)]GlcNAc
# Procedure, shortened: as §1
# Gal3S(b1-4)Glc = target: Gal3S(b1-4)Glc
# Procedure, shortened: as §1
# Gal3S(b1-4)Glc6S = target: Gal3S(b1-4)Glc6S
# Procedure, shortened: as §1
# Gal3S(b1-4)GlcNAc = target: Gal3S(b1-4)GlcNAc
# Procedure, shortened: as §1
# Gal3S(b1-4)GlcNAc6S = target: Gal3S(b1-4)GlcNAc6S
# Procedure, shortened: as §1
# [3] = target: Gal3S(b1-4)[Fuc(a1-3)]Glc
# Procedure, shortened: as §1
# [4] = target: Gal3S(b1-4)[Fuc(a1-3)]Glc6S
# Procedure, shortened: as §1
# Gal3S4S(b1-4)GlcNAc = target: Gal3S4S(b1-4)GlcNAc
# Procedure, shortened: as §1
# Gal3S6S(b1-4)GlcNAc = target: Gal3S6S(b1-4)GlcNAc
# Procedure, shortened: as §1
# Gal3S6S(b1-4)GlcNAc6S = target: Gal3S6S(b1-4)GlcNAc6S
# Procedure, shortened: as §1
# Gal4S(b1-4)GlcNAc = target: Gal4S(b1-4)GlcNAc
# Procedure, shortened: as §1
# Gal4S6S(b1-4)GlcNAc = target: Gal4S6S(b1-4)GlcNAc
# Procedure, shortened: as §1
# Gal6S(b1-3)GlcNAc = target: Gal6S(b1-3)GlcNAc
# Procedure, shortened: as §1
# Gal6S(b1-3)GlcNAc6S = target: Gal6S(b1-3)GlcNAc6S
# Procedure, shortened: as §1
# Gal6S(b1-4)Glc = target: Gal6S(b1-4)Glc
# Procedure, shortened: as §1
# Gal6S(b1-4)Glc6S = target: Gal6S(b1-4)Glc6S
# Procedure, shortened: as §1
# Gal6S(b1-4)GlcNAc = target: Gal6S(b1-4)GlcNAc
# Procedure, shortened: as §1
# Gal6S(b1-4)GlcNAc6S = target: Gal6S(b1-4)GlcNAc6S
# Procedure, shortened: as §1
# GalNAc(a1-3)Gal = target: GalNAc(a1-3)Gal
# Procedure, shortened: as §1
# GalNAc(a1-3)GalNAc = target: GalNAc(a1-3)GalNAc
# Procedure, shortened: as §1
# [5] = target: GalNAc(a1-3)GalNAc(a1-3)Gal(a1-4)Gal(b1-4)GlcNAc
# Procedure, shortened: as §1
# [6] = target: GalNAc(a1-3)GalNAc(b1-3)Gal(a1-4)Gal(b1-4)Glc
# Procedure, shortened: as §1
# GalNAc(b1-3)Gal = target: GalNAc(b1-3)Gal
# Procedure, shortened: as §1
# [7] = target: GalNAc(b1-3)Gal(a1-4)Gal(b1-4)GlcNAc
# Procedure, shortened: as §1
# [8] = target: GalNAc(b1-3)Gal(a1-4)Gal(b1-4)GlcNAc(b1-3)Gal(b1-4)Glc
# Procedure, shortened: as §1
# [9] = target: GalNAc(b1-3)Gal(a1-6)Gal(b1-4)Glc
# Procedure, shortened: as §1
# GalNAc(b1-3)GalNAc = target: GalNAc(b1-3)GalNAc
# Procedure, shortened: as §1
# GalNAc(b1-4)GlcNAc = target: GalNAc(b1-4)GlcNAc
# Procedure, shortened: as §1
# [10] = target: GalNAc(b1-4)GlcNAc(b1-2)Man(a1-3)[GalNAc(b1-4)GlcNAc(b1-2)Man(a1-6)]Man(b1-4)GlcNAc(b1-4)GlcNAc
# Procedure, shortened: as §1
# GalNAc(b1-6)GalNAc = target: GalNAc(b1-6)GalNAc
# Procedure, shortened: as §1
# Glc(a1-4)Glc = target: Glc(a1-4)Glc
# Procedure, shortened: as §1
# Glc(a1-6)Glc(a1-6)Glc = target: Glc(a1-6)Glc(a1-6)Glc
# Procedure, shortened: as §1
# Glc(b1-4)Glc = target: Glc(b1-4)Glc
# Procedure, shortened: as §1
# Glc(b1-6)Glc = target: Glc(b1-6)Glc
# Procedure, shortened: as §1
# GlcA(b1-3)Gal = target: GlcA(b1-3)Gal
# Procedure, shortened: as §1
# GlcA(b1-3)GlcNAc = target: GlcA(b1-3)GlcNAc
# Procedure, shortened: as §1
# GlcA(b1-6)Gal = target: GlcA(b1-6)Gal
# Procedure, shortened: as §1
# [11] = target: GlcNAc(a1-3)Gal(b1-4)GlcNAc
# Procedure, shortened: as §1
# [12] = target: GlcNAc(a1-4)Gal(b1-3)GlcNAc
# Procedure, shortened: as §1
# [13] = target: GlcNAc(a1-4)Gal(b1-4)GalNAc
# Procedure, shortened: as §1
# [14] = target: GlcNAc(a1-4)Gal(b1-4)GlcNAc
# Procedure, shortened: as §1
binder,measurement,setting,value
B1,glycan array binding signal (z-score),[1],-0.256
same,glycan array binding signal (z-score),Gal(b1-6)Gal,-0.255
same,glycan array binding signal (z-score),Gal3S(b1-3)GalNAc,-0.259
same,glycan array binding signal (z-score),Gal3S(b1-3)GlcNAc,-0.313
same,glycan array binding signal (z-score),[2],-0.154
same,glycan array binding signal (z-score),Gal3S(b1-4)Glc,-0.237
same,glycan array binding signal (z-score),Gal3S(b1-4)Glc6S,-0.227
same,glycan array binding signal (z-score),Gal3S(b1-4)GlcNAc,-0.248
same,glycan array binding signal (z-score),Gal3S(b1-4)GlcNAc6S,-0.212
same,glycan array binding signal (z-score),[3],-0.271
same,glycan array binding signal (z-score),[4],-0.227
same,glycan array binding signal (z-score),Gal3S4S(b1-4)GlcNAc,-0.273
same,glycan array binding signal (z-score),Gal3S6S(b1-4)GlcNAc,-0.275
same,glycan array binding signal (z-score),Gal3S6S(b1-4)GlcNAc6S,-0.238
same,glycan array binding signal (z-score),Gal4S(b1-4)GlcNAc,-0.287
same,glycan array binding signal (z-score),Gal4S6S(b1-4)GlcNAc,-0.273
same,glycan array binding signal (z-score),Gal6S(b1-3)GlcNAc,-0.241
same,glycan array binding signal (z-score),Gal6S(b1-3)GlcNAc6S,-0.271
same,glycan array binding signal (z-score),Gal6S(b1-4)Glc,-0.287
same,glycan array binding signal (z-score),Gal6S(b1-4)Glc6S,-0.24
same,glycan array binding signal (z-score),Gal6S(b1-4)GlcNAc,-0.193
same,glycan array binding signal (z-score),Gal6S(b1-4)GlcNAc6S,-0.163
same,glycan array binding signal (z-score),GalNAc(a1-3)Gal,-0.198
same,glycan array binding signal (z-score),GalNAc(a1-3)GalNAc,-0.142
same,glycan array binding signal (z-score),[5],-0.316
same,glycan array binding signal (z-score),[6],-0.272
same,glycan array binding signal (z-score),GalNAc(b1-3)Gal,-0.236
same,glycan array binding signal (z-score),[7],-0.274
same,glycan array binding signal (z-score),[8],-0.175
same,glycan array binding signal (z-score),[9],-0.203
same,glycan array binding signal (z-score),GalNAc(b1-3)GalNAc,-0.311
same,glycan array binding signal (z-score),GalNAc(b1-4)GlcNAc,-0.236
same,glycan array binding signal (z-score),[10],-0.14
same,glycan array binding signal (z-score),GalNAc(b1-6)GalNAc,-0.24
same,glycan array binding signal (z-score),Glc(a1-4)Glc,-0.279
same,glycan array binding signal (z-score),Glc(a1-6)Glc(a1-6)Glc,-0.234
same,glycan array binding signal (z-score),Glc(b1-4)Glc,-0.269
same,glycan array binding signal (z-score),Glc(b1-6)Glc,-0.289
same,glycan array binding signal (z-score),GlcA(b1-3)Gal,5.39
same,glycan array binding signal (z-score),GlcA(b1-3)GlcNAc,0.496
same,glycan array binding signal (z-score),GlcA(b1-6)Gal,-0.307
same,glycan array binding signal (z-score),[11],-0.232
same,glycan array binding signal (z-score),[12],-0.245
same,glycan array binding signal (z-score),[13],-0.185
same,glycan array binding signal (z-score),[14],-0.223
